Data on 48 sequences can be found in the supplement of paper PMC5655136.

These are enrichments in a pooled selection; single values are uncertain.
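Also: shRNA barcodes quantified by deep sequencing of PCR amplicons from cellular DNA, counts expressed as percent of each subpool, ratio averaged over two biological duplicates.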

In the first data set the test system is NB7. The experiment in a line: fold depletion of shRNA, plasmid library share / infected cells without Dox share (9 days) (ratio); higher = more depleted after infection (more toxic, leaky expression from a Tet-inducible vector; NB7 is a neuroblastoma line without caspase-8). The conditions noted are these: shRNA pool: CD95L ORF + CD95L 3'UTR + Venus libraries.
Consider TGAGGAACTCTAAGTATCCCC, for which the “fold depletion of shRNA” value was found to be 0.63.
On to GTTCTTCCCTGTCCAACCTCT, for which the “fold depletion of shRNA” value came out at 74.1.
Same read-out and setting: the figure for GACTTCAAGGAGGACGGCAAC is 0.496; for ATTTAAGGGATGGAAAAGGAA it is 3.57.
CTGCTGCCCGACAACCACTAC: the “fold depletion of shRNA” value came out at 2.76.
On to AGCAGCTACCAGGTGTTCTAC, for which the “fold depletion of shRNA” value was 3.16.
Still for that read-out and setting: to TGTAATAAAAAGTATATGTTA belongs 0.527; to CCTGGTCGAGCTGGACGGCGA, 0.869.
Same read-out and setting: to CCACCGGCAAGCTGCCCGTGC belongs 0.722; to CCTGAGCCATCGGTGAAACTA, 1.36.
On the same count and under the same terms, the figure for ATTTGAGGTCAAGTAAGAAGA is 1.27; for GCCATGTGAAGAGGGAGAAGC it is 0.551; for TGAACCAAGTGGACCTTGAGA it is 6.4.
Turning to ACCAGGTGTTCTACACTCATC, the “fold depletion of shRNA” value worked out at 3.23.
On the same count and under the same terms, the figure for AAAAATCATTGATTGTCAGCT is 2.42.
The same measure, in the same setting: the figure for CGACCACATGAAGCAGCACGA is 1.16; for CCCGACCACATGAAGCAGCAC it is 0.957.
As for CTATGGAATTGTCCTGCTTTC, the “fold depletion of shRNA” value was found to be 0.658.
In the case of GAACATAGAACTCTGGGCTGC, the “fold depletion of shRNA” value worked out at 2.55.
In the case of CTGTCCAACCTCTGTGCCCAG, the “fold depletion of shRNA” value was 0.29.
Same read-out and setting: the figure for ACTACAACAGCCACAACGTCT is 1.4; for CATCGACTTCAAGGAGGACGG it is 1.52; for AAAAAGTATATGTTAGGATAC it is 0.721.
Regarding CCCTCCAGGCACAGTTCTTCC, the “fold depletion of shRNA” value is 0.546.
As to GTGAAGTTCGAGGGCGACACC, the “fold depletion of shRNA” value turned out to be 1.17.
Still for that read-out and setting: the figure for CACCCCAGTCCACCCCCTGAA is 0.472.
The same measure, in the same setting: to ATCATTTATATGTCAACGTAT belongs 0.739.

Staying with this data set, now noted: shRNA pool: CD95 ORF + CD95 3'UTR + Venus libraries.
In the case of GACTTCAAGGAGGACGGCAAC, the “fold depletion of shRNA” value was found to be 0.352.
Consider AGACAAAGCCCATTTTTCTTC, for which the “fold depletion of shRNA” value is 1.08.
Still for that read-out and setting: to GAGAAAGTAGCTTTGTGACAT belongs 1.29; to CTGCTGCCCGACAACCACTAC, 1.06.
Consider ATATGTATTTGAGTGCAGAAT, for which the “fold depletion of shRNA” value is 1.04.
Turning to CCTGGTCGAGCTGGACGGCGA, the “fold depletion of shRNA” value turned out to be 1.07.
With GTTTGGGTGAAGAGAAAGGAA, the “fold depletion of shRNA” value came out at 0.817.
Same read-out and setting: to CACCTCTCCATTTTTGCCTTG belongs 2.33; to AGACTGTTACTACAGTTGAGA, 0.896; to AAGCTGACCCTGAAGCTGATC, 2.29.
On the same count and under the same terms, the figure for CCACCGGCAAGCTGCCCGTGC is 1.02.
Still for that read-out and setting: the figure for AATTAGTGTTTGAAAAGATTC is 1.16; for ACTGTTACTACAGTTGAGACT it is 1.08.
In the case of GGAATGCACACTCACCAGCAA, the “fold depletion of shRNA” value was 0.348.
The same measure, in the same setting: to ATGTATTTGAGTGCAGAATTT belongs 1.01.
Still for that read-out and setting: to TGAATCAATAGAAGAAGCTAT belongs 0.94.
On to CGACCACATGAAGCAGCACGA, for which the “fold depletion of shRNA” value amounted to 1.24.
Still for that read-out and setting: the figure for TGACTATTATATATGTGTATG is 1.02; for CCCGACCACATGAAGCAGCAC it is 1.46.
The same measure, in the same setting: to GATTAAAGATCTCAAAAAAGC belongs 1.1; to ACTACAACAGCCACAACGTCT, 1.14; to AGGAATGCACACTCACCAGCA, 0.905.
As to AAATTCAAACTTCAGAAATGA, the “fold depletion of shRNA” value was 1.25.
For the sequence CATCGACTTCAAGGAGGACGG, the “fold depletion of shRNA” value was 1.43.
On the same count and under the same terms, to AACTTTAAATCCTGAAACAGT belongs 1.12; to CCAATCTTTGTACTCTTGCAG, 0.344; to GTGAAGTTCGAGGGCGACACC, 0.725.
Same read-out and setting: the figure for TTGGAGATACTAACTGCTCTC is 4.2.
On the same count and under the same terms, to ACTGCTTGGTTTTTTACTGGG belongs 11; to CACCCCCGAAAATGTTCAATA, 1.91.
